The supplement of paper PMC11876631
± gives the standard deviation of the averaged measurements. Laboratory Escherichia coli strains with one amino-acid change in an essential protein, pooled on minimal glucose agar with carbenicillin or gentamicin at twice the control MIC (plus kanamycin and chloramphenicol for the plasmids), 48 h. Fold change of barcode share against drug-free plates; higher = less susceptible. Active = above 20 in both replicates (the paper's putatively resistant). '<' = one read or none on drug, '>' = one read or none on a drug-free plate. Shares are relative, so most strains fall below 1 when a few take over. Listed are strains with at least 15 reads on both drug-free plates, and hits; most hits rest on fewer reference reads. Replicate rank correlation about 0.5. Edits are read from barcodes.

B1: lpxK; a variant is named by its letters at X, in order (parent)
chain: MIEKIWSGESPLWRLXLPLSWXYGLVSGAIRLCYKLKLKRAWRAPVPVVVVGNLTAGGNGKTPVVVWLVEQLQQRGIRVGVVSRGYGGKAESYPLLLSADTTTAQAGDEPVLIYQRTDAPVAVSPVRSDAVKAILAQHPDVQIIVTDDGLQHYRLARDVEIVVIDGVRRFGNGWWXPAGPMRERAGRLKSXDAVIVNGGVPRSGEIPMHLLPGQAVNLRTGTRCDVAQLEHXVAXAGIGHPPRFFATLKMCGVQPEKCVPLADHQSLNHADVSALVSAGQTLVMTEKDAVKCRAFAEENWWYLPVDAQLSGDEPAKLLTQLTLLASGN
B2: purM; numbered along this chain (parent)
chain: MTDKTSLSYKDAGVDIDAGNALVGRIKGVVKKTRRPEVMGGLGGFGALCALPQKYREPVLVSGTDGVGTKLRLAMDLKRHDTIGIDLVAMCVNDLVVQGAEPLFFLDYYATGKLDVDTASAVISGIAEGCLQSGCSLVGGETAEMPGMYHGEDYDVAGFCVGVVEKSEIIDGSKVSDGDVLIALGSSGPHSNGYSLVRKILEVSGCDPQTTELDGKPLADHLLAPTRIYVKSVLELIEKVDVHAIAHLTGGGFWENIPRVLPDNTQAVIDESSWQWPEVFNWLQTAGNVEHHEMYRTFNCGVGMIIALPAPEVDKALALLNANGENAWKIGIIKASDSEQRVVIE
B3: pheT; numbered along this chain (parent)
chain: MKFSELWLREWVNPAIDSDALANQITMAGLEVDGVEPVAGSFHGVVVGEVVECAQHPNADKLRVTKVNVGGDRLLDIVCGAPNCRQGLRVAVATIGAVLPGDFKIKAAKLRGEPSEGMLCSFSELGISDDHSGIIELPADAPIGTDIREYLKLDDNTIEISVTPNRADCLGIIGVARDVAVLNQLPLVQPEIVPVGATIDDTLPITVEAPEACPRYLGRVVKGINVKAPTPLWMKEKLRRCGIRSIDAVVDVTNYVLLELGQPMHAFDKDRIEGGIVVRMAKEGETLVLLDGTEAKLNADTLVIADHNKALAMGGIFGGEHSGVNDETQNVLLECAFFSPLSITGRARRHGLHTDASHRYERGVDPALQHKAMERATRLLIDICGGEAGPVIDITNEATLPKRATITLRRSKLDRLIGHHIADEQVTDILRRLGCEVTEGKDEWQAVAPSWRFDMEIEEDLVEEVARVYGYNNIPDEPVQASLIMGTHREADLSLKRVKTLLNDKGYQEVITYSFVDPKVQQMIHPGVEALLLPSPISVEMSAMRLSLWTGLLATVVYNQNRQQNRVRIFESGLRFVPDTQAPLGIRQDLMLAGVICGNRYEEHWNLAKETVDFYDLKGDLESVLDLTGKLNEVEFRAEANPALHPGQSAAIYLKGERIGFVGVVHPELERKLDLNGRTLVFELEWNKLADRVVPQAREISRFPANRRDIAVVVAENVPAADILSECKKVGVNQVVGVNLFDVYRGKGVAEGYKSLAISLILQDTSRTLEEEEIAATVAKCVEALKERFQASLRD

Variants of: B1
Test: barcode share on antibiotic plates over drug-free plates; higher = less susceptible
Conditions: with Escherichia coli (laboratory strain); antibiotic: carbenicillin; 2× MIC (3.1 µg/mL)
Description: (§1)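 A pool of E. coli strains, each edited to carry one amino-acid change in an essential protein, was grown for 48 h on minimal glucose agar with or without antibiotic; strain barcodes were sequenced; mean of two replicates.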

Variant | fold change of barcode share
LLLVQM | 0.33 ± 0.035
LLAVVM | 1.27 ± 0.41
LLLVDM | 0.341 ± 0.1
LLLDVM | 0.326 ± 0.0085
LLLAVM | 0.405 ± 0.044
LLLWVM | 0.276 ± 0.1
LLLVVM I195P | 0.437 ± 0.054
LLLVVM I195W | 0.34 ± 0.25
LLLVVM I195A | 0.173 ± 0.046
LWLVVM | 0.205 ± 0.05
LLLPVM | 0.294 ± 0.092
LLLVAM | 0.272 ± 0.046
LLLVVP | 0.303 ± 0.074
LLLVVW | 0.29 ± 0.082
LLLVVQ | 1.15 ± 0.37
LLLVVA | 0.185 ± 0.082
LQLVVM | 0.192 ± 0.095
LLPVVM | 0.417 ± 0.045
LALVVM | 0.319 ± 0.006
LPLVVM | 0.222 ± 0.08
LLLQVM | 0.249 ± 0.067
LLLVWM | 0.313 ± 0.11
LDLVVM | 0.261 ± 0.16
LLQVVM | 0.624 ± 0.11
LLWVVM | 0.37 ± 0.091
LLLVPM | 0.404 ± 0.064

Same assay, conditions: with Escherichia coli (laboratory strain); antibiotic: gentamicin; 2× MIC (MIC 0.45 µg/mL)

Variant | fold change of barcode share
LLLVQM | 0.00711 ± 0.0025
LLAVVM | < 0.00284
LLLVDM | 0.0205 ± 0.021
LLLDVM | 0.0097 ± 0.0054
LLLAVM | < 0.00519
LLLWVM | < 0.00662
LLLVVM I195P | 0.015 ± 0.0021
LLLVVM I195W | 0.0104 ± 0.0068
LLLVVM I195A | < 0.01
LWLVVM | < 0.00575
LLLPVM | 0.00912 ± 0.0071
PLLVVM | 0.015 ± 0.0033
LLLVAM | 0.00236 ± 0.0011
LLLVVP | 0.0224 ± 0.0025
LLLVVW | < 0.00511
LLLVVQ | < 0.0043
LLLVVA | < 0.00923
LQLVVM | < 0.00782
LLPVVM | 0.00585 ± 0.006
LALVVM | 0.00552 ± 0.00029
LPLVVM | 0.0105 ± 0.0086
QLLVVM | 0.0192 ± 0.013
LLLQVM | 0.00709 ± 0.0024
LLLVWM | 0.0107 ± 0.011
LDLVVM | < 0.0143
LLQVVM | 0.00356 ± 0.00042
LLWVVM | 0.0045 ± 0.0034
LLLVPM | 0.00659 ± 0.00097
ALLVVM | < 0.00975
WLLVVM | < 0.015

Variants of: B2
Test: as above
Conditions: with Escherichia coli (laboratory strain); antibiotic: carbenicillin; 2× MIC (3.1 µg/mL)
Description: as §1

Variant | fold change of barcode share
F105D | > 53.2 [active]
F105Q | > 110 [active]
F105W | 1.68 ± 0.4
F105A | 79.5 [active]
I126W | > 27.3 [active]
I126P | > 39.9 [active]
I126D | > 31.3 [active]
I126Q | 1.45 ± 0.28
I126A | 1 ± 0.18
M304Q | 0.304 ± 0.022
M304A | 0.432 ± 0.2
I123Q | > 38.8 [active]
I123W | > 32.6 [active]
I123D | > 71.3 [active]
I123A | 0.761 ± 0.083
I306Q | 60 [active]
I306W | 44.8 [active]
L320A | 0.23 ± 0.1
L320W | > 52 [active]
I305P | > 22.9 [active]
I305W | 38.9 [active]
I305A | 0.373 ± 0.064

Same assay, conditions: with Escherichia coli (laboratory strain); antibiotic: gentamicin; 2× MIC (MIC 0.45 µg/mL)

Variant | fold change of barcode share
I126Q | 0.0563 ± 0.066
I126A | 0.00894 ± 0.0034
M304Q | < 0.0149
M304W | 0.025 ± 0.009
M304A | < 0.0128
I123A | < 0.00816
I306A | < 0.0128
L320A | < 0.00776
I305A | 0.0121 ± 0.012

Variants of: B3
Test: as above
Conditions: with Escherichia coli (laboratory strain); antibiotic: gentamicin; 2× MIC (MIC 0.45 µg/mL)
Description: as §1

Variant | fold change of barcode share
V221A | 0.00774 ± 0.0022
V221Q | 0.0043 ± 0.00027
V278D | 0.0057 ± 0.0022
V278W | 0.00718 ± 0.004
V278P | 0.00466 ± 0.001
V278A | 0.00868 ± 0.0034
V278Q | 0.00612 ± 0.0029
L217P | < 0.0124
L217Q | 0.0081 ± 0.0024

Same assay, conditions: with Escherichia coli (laboratory strain); antibiotic: carbenicillin; 2× MIC (3.1 µg/mL)

Variant | fold change of barcode share
V221Q | 0.431 ± 0.051
V278D | 0.483 ± 0.26
V278W | 0.383 ± 0.13
V278P | 0.253 ± 0.023
V278A | 0.399 ± 0.34
V278Q | 0.42 ± 0.15
L217P | 0.225 ± 0.055
L217Q | 0.835 ± 0.12
